Assay results published in patent publication EP3057951B1, “METHYLENE LINKED QUINOLINYL MODULATORS OF ROR-GAMMA-T” (Janssen Pharmaceutica NV, priority 2013, dated 2015).

Tested on: IL-17 production by CD4 T cells
Assay: Human Th17 Assay (IL-17 production under Th17 differentiation conditions)
[1] = Homo sapiens, CD4+ T, 72 h, read-out: Human Th17 Assay, IC50, IL-17 production, CD4 T cells, 3 days
[2] = read-out: Human Th17 Assay, IC50, IL-17 production, CD4 T cells, 3 days

Structure (SMILES)	IC50 [1]	IC50 [2]	further results
COc1nc2ccc(C(O)(c3cnnn3C)c3cnc(C)n3C)cc2c(Cl)c1Cc1ccc(C(F)(F)F)nc1 (single isomer, unassigned) [Example 43c, (4-Chloro-2-methoxy-3-((6-(trifluoromethyl)pyridin-3-yl)methyl)quinolin-6-yl)(1,2-dimethyl-1H-imidazol-5-yl)(1-methyl-1H-1,2,3-triazol-5-yl)methanol]	14 nM	–	–
COc1nc2ccc(C(O)(c3ccc(F)cc3)C3CCN(C(C)=O)CC3)cc2c(Cl)c1Cc1ccc(-n2cccn2)cc1 (single isomer, unassigned) [Example 157c, 1-(4-((3-(4-(1H-Pyrazol-1-yl)benzyl)4-chloro-2-methoxyquinolin-6-yl)(4-fluorophenyl)(hydroxy)methyl)piperidin-1-yl)ethanone]	–	370 nM	–
COc1nc2ccc(C(O)(c3cnc(C)n3C)c3cnc(C)n3C)cc2c(Cl)c1Cc1ccc(-n2cccn2)cc1 [Example 13, (3-(4-(1H-Pyrazol-1-yl)benzyl)4-chloro-2-methoxyquinolin-6-yl)bis(1,2-dimethyl-1H-imidazol-5-yl)methanol]	–	–	IC50 (Homo sapiens, CD4+ T, 72 h, read-out: Human Th17 Assay, IC50): 100 nM
COc1nc2ccc(C(O)(c3cnnn3C)c3cnnn3C)cc2c(Cl)c1Cc1ccc(C(F)(F)F)cc1 [Example 12, (4-Chloro-2-methoxy-3-(4-(trifluoromethyl)benzyl)quinolin-6-yl)bis(1-methyl-1H-1,2,3-triazol-5-yl)methanol]	2.4 nM	–	–
CC(=O)N1CCC(C(O)(c2cc(C)c3nc(C#N)c(Cc4ccc(-n5cccn5)cc4)c(C#N)c3c2)c2cncn2C)CC1 (single isomer, unassigned) [Example 81b, 3-(4-(1H-Pyrazol-1-yl)benzyl)-6-((1-acetylpiperidin-4-yl)(hydroxy)(1-methyl-1H-imidazol-5-yl)methyl)-8-methylquinoline-2,4-dicarbonitrile]	2600 nM	–	–
COc1nc2ccc(C(O)(c3ccccc3)C3CCN(C(C)=O)CC3)cc2c(Cl)c1Cc1ccc(-n2ccnc2)cc1 (centres unmarked) [Example 16b]	–	91 nM	–
COc1nc2ccc(C(O)(c3oc(C)nc3C)c3cnnn3C)cc2c(Cl)c1Cc1ccc(C(F)(F)F)cc1 (single isomer, unassigned) [Example 156b, (4-chloro-2-methoxy-3-(4-(trifluoromethyl)benzyl)quinolin-6-yl)(2,4-dimethylozazol-5-yl)(1-methyl-1H-1,2,3-triazol-5-yl)methanol]	–	82 nM	–
COc1nc2ccc(C(O)(c3cnnn3C)C3CCN(C(C)=O)CC3)cc2c(Cl)c1Cc1ccc(C(F)(F)F)cc1 (single isomer, unassigned) [Example 74b, 1-(4-((4-Chloro-2-methoxy-3-(4-(trifluoromethyl)benzyl)quinolin-6-yl)(hydroxy)(1-methyl-1H-1,2,3-triazol-5-yl)methyl)piperidin-1-yl)ethanone]	25 nM	–	–
COc1nc2ccc(C(O)(C3CN(C(C)=O)C3)C3CN(C(C)=O)C3)cc2c(Cl)c1Cc1ccc(C(F)(F)F)cc1 [Example 3, 1,1'-(3,3'-((4-Chloro-2-methoxy-3-(4-(trifluoromethyl)benzyl)quinolin-6-yl)(hydroxy)methylene)bis(azetidine-3,1-diyl))diethanone]	110 nM	–	–
COc1nc2ccc(C(O)(c3ccc(F)cc3)C3CCN(C(C)=O)CC3)cc2c(Cl)c1Cc1ccc(-n2cccn2)cc1 (single isomer, unassigned) [Example 157b, 1-(4-((3-(4-(1H-Pyrazol-1-yl)benzyl)4-chloro-2-methoxyquinolin-6-yl)(4-fluorophenyl)(hydroxy)methyl)piperidin-1-yl)ethanone]	–	25 nM	–
CCc1nc2ccc(C(O)(c3cnnn3C)c3cnc(C)n3C)cc2c(Cl)c1Cc1ccc(C(F)(F)F)cc1 (single isomer, unassigned) [Example 25b, (4-Chloro-2-ethyl-3-(4-(trifluoromethyl)benzyl)quinolin-6-yl)(1,2-dimethyl-1H-imidazol-5-yl)(1-methyl-1H-1,2,3-triazol-5-yl)methanol]	2.1 nM	–	–
Cc1ccc(C(O)(c2ccc3nc(N4CCC4)c(Cc4ccc(C(F)(F)F)cc4)c(Cl)c3c2)c2cnnn2C)c(C)n1 (single isomer, unassigned) [Example 140b, {2-Azetidin-1-yl-4-chloro-3-[4-(trifluoromethyl)benzyl]quinolin-6-yl}(2,6-dimethylpyridin-3-yl)(1-methyl-1H-1,2,3-triazol-5-yl)methanol]	28 nM	–	–

More lines, main results first:

IC50 [1]	IC50 [2]	Structure (SMILES)	further results
0.13 nM	–	COc1nc2ccc(C(O)(c3cncn3C)c3cnnn3C)cc2c(Cl)c1Cc1ccc(C(F)(F)F)cc1 (single isomer, unassigned) [Example 89b, (4-Chloro-2-methoxy-3-(4-(trifluoromethyl)benzyl)quinolin-6-yl)(1-methyl-1H-1,2,3-triazol-5-yl)(1-methyl-1H-imidazol-5-yl)methanol]	–
–	1800 nM	COc1ccc(C(O)(c2cccnc2)c2ccc3nc(OC)c(Cc4ccc(-n5cccn5)cc4)c(Cl)c3c2)cc1OC (single isomer, unassigned) [Example 159b, (3-(4-(1H-Pyrazol-1-yl)benzyl)-4-chloro-2-methoxyquinolin-6-yl)(3,4-dimethoxyphenyl)(pyridin-3-yl)methanol]	–
–	210 nM	Cn1cncc1C(O)(c1ccc(C(F)(F)F)nc1)c1ccc2nc(N3CC(F)C3)c(Cc3ccc(-n4cccn4)cc3)c(Cl)c2c1 (single isomer, unassigned) [Example 147b, {4-Chloro-2-(3-fluoroazetidin-1-yl)-3-[4-(1H-pyrazol-1-yl)benzyl]quinolin-6-yl}(1-methyl-1H-imidazol-5-yl)[6-(trifluoromethyl)pyridin-3-yl]methanol]	–
–	950 nM	COc1nc2ccc(C(O)(c3ccc(C#N)cc3)c3cncn3C)cc2c(C#N)c1Cc1ccc(-n2cncn2)cc1 (single isomer, unassigned) [Example 15b, 3-(4-(1H-1,2,4-Triazol-1-yl)benzyl)-6-((4-cyanophenyl)(hydroxy)(1-methyl-1H-imidazol-5-yl)methyl)-2-methoxyquinoline-4-carbonitrile]	–
–	420 nM	Cn1cncc1C(O)(c1ccc(C(F)(F)F)nc1)c1ccc2nc(C#N)c(Cc3ccc(F)cc3)c(C#N)c2c1 (single isomer, unassigned) [Example 53c, 3-(4-Fluorobenzyl)-6-(hydroxy(1-methyl-1H-imidazol-5-yl)(6-(trifluoromethyl)pyridin-3-yl)methyl)quinoline-2,4-dicarbonitrile]	–
21 nM	–	COc1nc2ccc(C(O)(c3ccc(C#N)cc3)c3cncn3C)cc2c(Cl)c1Cc1ccc(C(F)(F)F)nc1 (single isomer, unassigned) [Example 38c, 4-((4-Chloro-2-methoxy-3-((6-(trifluoromethyl)pyridin-3-yl)methyl)quinolin-6-yl)(hydroxy)(1-methyl-1H-imidazol-5-yl)methyl)benzonitrile]	–
640 nM	–	Cn1cncc1C(O)(c1ccc(C(F)(F)F)nc1)c1ccc2nc(C#N)c(Cc3ccc(F)cc3)c(C#N)c2c1 (single isomer, unassigned) [Example 53b, 3-(4-Fluorobenzyl)-6-(hydroxy(1-methyl-1H-imidazol-5-yl)(6-(trifluoromethyl)pyridin-3-yl)methyl)quinoline-2,4-dicarbonitrile]	–
–	1100 nM	COc1nc2ccc(C(O)(c3ccccn3)c3cncn3C)cc2c(Cl)c1Cc1cc2ccccc2s1 (single isomer, unassigned) [Example 59c, (3-(Benzo[b]thiophen-2-ylmethyl)-4-chloro-2-methoxyquinolin-6-yl)(1-methyl-1H-imidazol-5-yl)(pyridin-2-yl)methanol]	–
–	140 nM	COc1nc2ccc(C(O)(c3cncn3C)C3CCOCC3)cc2c(Cl)c1Cc1ccc(-n2cccn2)cc1 (single isomer, unassigned) [Example 1b, (3-(4-(1H-Pyrazol-1-yl)benzyl)-4-chloro-2-methoxyquinolin-6-yl)(1-methyl-1H-imidazol-5-yl)(tetrahydro-2H-pyran-4-yl)methanol]	–
74 nM	–	Cc1cc(C(O)(c2ccc(Cl)cc2)c2cncn2C)cc2c(Cl)c(Cc3ccc(-n4cccn4)cc3)c(N3CCC3)nc12 (single isomer, unassigned) [Example 136c, {2-Azetidin-1-yl-4-chloro-8-methyl-3-[4-(1H-pyrazol-1-yl)benzyl]quinolin-6-yl}(4-chlorophenyl)(1-methyl-1H-imidazol-5-yl)methanol]	–
–	45 nM	Cn1cncc1C(O)(c1ccc(C(F)(F)F)nc1)c1ccc2nc(N3CC(F)(F)C3)c(Cc3ccc(-n4cccn4)cc3)c(Cl)c2c1 (single isomer, unassigned) [Example 135c, {4-Chloro-2-(3,3-difluoroazetidin-1-yl)-3-[4-(1H-pyrazol-1-yl)benzyl]quinolin-6-yl}(1-methyl-1H-imidazol-5-yl)[6-(trifluoromethyl)pyridin-3-yl]methanol]	–
–	< 0.1 nM	COc1nc2ccc(C(O)(c3cncn3C)c3cnnn3C)cc2c(Cl)c1Cc1ccc(C(F)(F)F)cc1 (single isomer, unassigned) [Example 89c, (4-Chloro-2-methoxy-3-(4-(trifluoromethyl)benzyl)quinolin-6-yl)(1-methyl-1H-1,2,3-triazol-5-yl)(1-methyl-1H-imidazol-5-yl)methanol]	–
49 nM	–	COc1nc2ccc(C(O)(c3ccccn3)c3cncn3C)cc2c(Cl)c1Cc1ccc(-n2cccn2)cc1 (single isomer, unassigned) [Example 64c, (3-(4-(1H-Pyrazol-1-yl)benzyl)-4-chloro-2-methoxyquinolin-6-yl)(1-methyl-1H-imidazol-5-yl)(pyridin-2-yl)methanol]	–
320 nM	–	Cn1cncc1C(O)(c1ccc(C(F)(F)F)nc1)c1ccc2nc(N3CCCC3)c(Cc3ccc(-n4cccn4)cc3)c(Cl)c2c1 (single isomer, unassigned) [Example 145b, {4-Chloro-3-[4-(1H-pyrazol-1-yl)benzyl]-2-pyrrolidin-1-ylquinolin-6-yl}(1-methyl-1H-imidazol-5-yl)[6-(trifluoromethyl)pyridin-3-yl]methanol]	–

Where two headings read alike, the source gives them in different places.
